In PubChem BioAssay AID360 (National Center for Advancing Translational Sciences (NCATS), 2006) one finds Potency data, which are given here for 90 compounds.

The structures appear in SMILES notation. About 550 (1.1%) of roughly 48,000 compounds were called active. Not shown: some 4% with an inconclusive outcome. No stated cut-off is given here; in the data, active means potency below about 15 µM; inconclusive means mostly about 16 µM to 33 µM; inactive means weaker than that. Some of the results follow.
Potency means the concentration at half of the fitted maximal effect.

Chain of UniProt P04062 (P04062 whole entry, looked up): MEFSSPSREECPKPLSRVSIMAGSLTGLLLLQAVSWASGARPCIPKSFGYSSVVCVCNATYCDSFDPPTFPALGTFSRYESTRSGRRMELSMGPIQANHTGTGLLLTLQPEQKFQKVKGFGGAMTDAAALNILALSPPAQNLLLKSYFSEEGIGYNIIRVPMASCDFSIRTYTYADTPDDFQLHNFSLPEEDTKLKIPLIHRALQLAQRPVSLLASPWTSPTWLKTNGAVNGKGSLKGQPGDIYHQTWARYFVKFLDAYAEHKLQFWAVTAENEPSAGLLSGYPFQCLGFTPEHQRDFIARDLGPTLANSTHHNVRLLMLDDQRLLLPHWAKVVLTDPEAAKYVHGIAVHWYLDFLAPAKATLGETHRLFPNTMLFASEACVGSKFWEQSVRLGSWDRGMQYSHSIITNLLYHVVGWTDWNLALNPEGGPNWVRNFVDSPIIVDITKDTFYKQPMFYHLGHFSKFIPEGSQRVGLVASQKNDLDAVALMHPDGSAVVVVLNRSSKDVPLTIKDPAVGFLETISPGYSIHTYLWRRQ

The assay concerns the target Lysosomal acid glucosylceramidase (Homo sapiens) (UniProt P04062). Put plainly: Glucocerebrosidase.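 Further: the screen sought inhibitors.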 Particulars: purified enzyme, resorufin glucoside fluorescence (screen aimed at inhibitors), 20 min; series mostly up to 77 µM. The source says:
NCGC Assay Overview: Beta-glucocerebrosidase catalyzes the hydrolysis of beta-glucocerebroside to glucose and ceramide. The inherited deficiency of beta-glucocerebrosidase results in Gaucher disease, which is characterized by a wide variety of symptoms including hepatosplenomegaly, anemia, thrombocytopenia, bony lesions and bone marrow infiltration with characteristic storage cells, known as Gaucher cells. There are also forms of the disorder affecting the central nervous system. Patients with the same genotypes can manifest with diverse clinical presentations and it is believed that improper folding and trafficking of beta-glucocerbrosidase may contribute to the phenotypes observed. Low molecular weight molecules, acting as chaperones, may potentially restore trafficking of misfolded beta-glucocerebrosidase from the endoplasmic reticulum to the lysosomes, thereby enhancing functional lysosomal beta-glucocerebrosidase activity. Using normal beta-glucocerebrosidase, an assay was developed to screen for small molecule inhibitors that could potentially act as molecular chaperones on the mutant forms [developed with NIH investigator Dr. Ellen Sidransky's laboratory]. Two pro-fluorescent substrates were chosen for two screens against a small molecule library. One beta-glucocerebrosidase assay used Resorufin beta-D-Glucopyranoside (Marker Gene Technology Inc.), generating a red fluorescent product. The second assay used Fluorescein di-beta-D-Glucopyranoside, generating a blue fluorescent product. […] The IC50 values of Conduritol B Epoxide, a known glucocerebrosidase inhibitor, were determined to be 87.5 uM and 117 uM, respectively. The use of two difference pro-fluorescent substrates in the screens helped to eliminate false positives. All compounds were screened in a titration series resulting in AC50s (e.g., IC50s or EC50s).
NCGC Assay Protocol Summary: Both enzyme and substrate were diluted in buffer composed of 50mM citric acid/KH2PO4, 10mM sodium taurocholate and 0.01% tween-20 at pH 5.9. The final concentration of the enzyme was 0.2 nM in both assays. The compound library was titrated in 7 to 15 concentrations for the primary screens with a final concentration ranging from 0.6 nM to 50 uM. This particular assay protocol is for the "red" substrate, and it was performed in 1536-well plate format as follows: Red fluorescence substrate assay: 2 uL enzyme 23 nL compound 1 uL substrate (final concentration of 30 uM) Incubate at room temperature (RT) for 20 minutes Read the plate in Viewlux plate reader (Ex=548(7) and Em=600(10)).
Turning to `CCn1c(=O)c(C(=O)NCCN2CCCCC2)c(O)c2ccccc21`, the Potency was inactive: > 76.9 µM.

With `c1ccc(-c2ccc(-c3ccccn3)nn2)nc1`, the Potency is inactive: > 76.9 µM.

Turning to `O=C(C(F)C(F)(F)F)N1CCN(c2ccccc2)CC1` (stereo not given), the Potency was inactive: > 76.9 µM.

With `COc1ccc(-c2nc(NC(=O)c3cc(C(C)(C)C)nn3C)sc2C)cc1`, the Potency is inactive: > 76.9 µM.

Turning to `O=C1N/C(=C\c2ccccc2)c2ccccc21`, the Potency is inactive: > 76.9 µM.

Take `Cn1c(Cn2nnc3ccccc32)nnc1SCC(=O)NCc1ccc2c(c1)OCO2`: the Potency is inactive: > 76.9 µM.

For the compound `COc1ccc(OC)c(NC2c3ncccc3C(=O)N2Cc2ccco2)c1` (stereo not given), the Potency is inactive: > 76.9 µM.

On to `COCCNC(=O)c1snc2ccc(Cl)cc12`, for which the Potency is inactive: > 76.9 µM.

Consider `Cc1ccc2c(c1)c1ncnc(N3CCC4(CC3)OCCO4)c1n2C`, for which the Potency is inactive: > 76.9 µM.

Regarding `CCOC(=O)c1c(NC(=O)c2nc3n(n2)C(C(F)F)CC(C)N3)sc2c1CCCC2` (stereo not given), the Potency is inactive: > 76.9 µM.

Consider `COc1ccc(OC)c(S(=O)(=O)Nc2ccccc2C)c1`, for which the Potency is inactive: > 76.9 µM.

For `COc1cc2nc(SCC(=O)NCCc3ccccc3)n(Cc3ccco3)c(=O)c2cc1OC`, the Potency was inactive: > 76.9 µM.

For the compound `Cc1nc2nc(SCC(=O)NCc3ccco3)nn2c(C)c1Cc1c(F)cccc1Cl`, the Potency is inactive: > 76.9 µM.

Consider `Cn1c(CNc2ccccn2)c(C#N)c2ccccc21`, for which the Potency was inactive: > 76.9 µM.

Regarding `Oc1ccccc1-c1cc(-c2ccccc2Cl)[nH]n1`, the Potency was inactive: > 76.9 µM.

Turning to `CCC(CC)C(=O)Nc1cccc(C(=O)NCc2ccco2)c1`, the Potency is inactive: > 76.9 µM.

As to `Nc1nsc2ccccc12`, the Potency was inactive: > 76.9 µM.

`CCOC(=O)N1CCN(C(=O)c2oc3ccc(S(=O)(=O)N4CCCCC4)cc3c2C)CC1`: the Potency was inactive: > 76.9 µM.

Turning to `COc1ccc(CNC(=O)C2CCN(S(=O)(=O)c3cc(OC)ccc3OC)CC2)cc1`, the Potency was inactive: > 76.9 µM.

As to `CCn1c(COc2cccc3ccccc23)nnc1SCC(N)=O`, the Potency is inactive: > 76.9 µM.

For `Clc1ccccc1OCc1nnc(-c2ccccc2Br)o1`, the Potency is inactive: > 76.9 µM.

In the case of `Cc1ccc(-c2cc(-c3ccccc3Cl)c(C#N)c(N)n2)o1`, the Potency is inactive: > 76.9 µM.

As for `COc1ccc(-c2nnc(SC(C)C(=O)Nc3ccc4c(c3)OCCO4)o2)cc1` (stereo not given), the Potency was inactive: > 76.9 µM.

On to `O=C1CC(Sc2ncccn2)C(=O)N1c1ccccc1C(F)(F)F` (stereo not given), for which the Potency is inactive: > 76.9 µM.

Regarding `Cc1ccc(C)c(NC(=O)C2CC(O)CN2C(=O)OC(C)(C)C)c1` (stereo not given), the Potency is inactive: > 76.9 µM.

For `O=S1(=O)N=C2CCCN2C(c2ccc(F)cc2)N1` (stereo not given), the Potency was inactive: > 76.9 µM.

Take `Cc1ccc(Nc2nc3nonc3[nH]c2=O)cc1`: the Potency is inactive: > 76.9 µM.

`CCc1cc(/C(Cc2ccc3ccccc3n2)=N\O)c(O)cc1O`: the Potency is inactive: > 76.9 µM.

As for `O=S(=O)(c1ccccc1)N(C1=NCCS1)S(=O)(=O)c1ccccc1`, the Potency is inactive: > 76.9 µM.

For `COc1cccc(C2C3=C(CCCC3=O)Nc3nc4ccccc4n32)c1OC` (stereo not given), the Potency is inactive: > 76.9 µM.

As for `CCOc1cc(-c2nc(-c3ccccc3OC)no2)cc(OCC)c1OCC`, the Potency is inactive: > 76.9 µM.

`Clc1ccc2nc3ccccn3c2c1`: the Potency is inactive: > 76.9 µM.

Consider `CC(C)Cn1c(-c2ccc(Cl)cc2)cnc1SCC(=O)N1CCOCC1`, for which the Potency was inactive: > 76.9 µM.

As to `c1ccc2c(c1)Cn1nnnc1-2`, the Potency was inactive: > 76.9 µM.

Turning to `FC(F)(F)c1cccc(OCCOCCn2cncn2)c1`, the Potency is inactive: > 76.9 µM.

Consider `C=CCn1c(CC(=O)OC)csc1=Nc1ccc(C(C)=O)cc1`, for which the Potency is inactive: > 76.9 µM.

On to `COC(=O)CN1C(=O)C(O)(CC(=O)c2ccc(C)o2)c2ccccc21` (stereo not given), for which the Potency was inactive: > 76.9 µM.

Turning to `COc1ccccc1CNC(=O)CN(c1ccc(C)cc1)S(=O)(=O)c1c(C)nn(C)c1C`, the Potency was inactive: > 76.9 µM.

`CC1CC1C(=O)OCc1cc(=O)n2cc(Br)ccc2n1` (stereo not given): the Potency is inactive: > 76.9 µM.

Take `Fc1cc2nccnc2cc1N1CCSCC1`: the Potency is inactive: > 76.9 µM.

Turning to `CC(=O)OC1CC(C)N(C(=O)c2ccccc2)c2ccc(C)cc21` (stereo not given), the Potency was inactive: > 76.9 µM.

For `COc1cc(-c2nn3c(-c4cccc(C)c4)nnc3s2)cc(OC)c1OC`, the Potency was inactive: > 76.9 µM.

Regarding `O=C(NCCCN1CCN(c2ccccc2F)CC1)C1CCC(=O)N1C1CCCCC1` (stereo not given), the Potency was inactive: > 76.9 µM.

In the case of `CN(C1CCCCC1)S(=O)(=O)c1ccc(NC(=O)c2ccco2)cc1`, the Potency is inactive: > 76.9 µM.

For `c1ccc(-c2ccccc2-c2nc(-c3cccnc3)no2)cc1`, the Potency is inactive: > 76.9 µM.

`Cc1cccc(N2C(=O)CC(N(C(=O)c3ccco3)c3cccc(C)c3)C2=O)c1` (stereo not given): the Potency is inactive: > 76.9 µM.

As to `COC(=O)c1ccccc1S(=O)(=O)N(Cc1ccco1)Cc1cc2cc(OC)ccc2[nH]c1=O`, the Potency is inactive: > 76.9 µM.

Turning to `COc1ccc(CCN(Cc2nc(-c3ccccc3)no2)Cc2nc(-c3ccccc3)no2)cc1OC`, the Potency was inactive: > 76.9 µM.

On to `O=C(c1ccc(N2CCNCC2)cc1)c1cccnc1`, for which the Potency was inactive: > 76.9 µM.

On to `CCNC(=O)c1ccc2c(c1)S(=O)(=O)c1ccccc1C2=O`, for which the Potency was inactive: > 76.9 µM.

Take `Cc1onc(-c2c(Cl)cccc2Cl)c1C(=O)Nc1c(C)n(C)n(-c2ccccc2)c1=O`: the Potency is inactive: > 76.9 µM.

Turning to `O=C1CCCc2[nH]nc(-c3cccnc3)c21`, the Potency was inactive: > 76.9 µM.

As for `CCn1c(=S)sc2c(=O)n(-c3ccccc3)c(SC)nc21`, the Potency result is “inactive”.

Take `CCC(C)(C)NC(=O)C(c1ccncc1)N(Cc1cccs1)C(=O)Cn1nnc2ccccc21` (stereo not given): the Potency was inactive: > 76.9 µM.

Consider `CN(CCNC(=O)c1ccc(N2CCCC2=O)cc1)CCc1ccccc1`, for which the Potency is inactive: > 76.9 µM.

Take `COc1cc2ccccc2cc1C(=O)Nc1ccc(S(=O)(=O)Nc2cc(C)on2)cc1`: the Potency was inactive: > 76.9 µM.

On to `COC(=O)c1c(NC(=O)CSc2nnc(Cn3nnc4ccccc43)n2C)sc(C)c1C`, for which the Potency was inactive: > 76.9 µM.

For `CC1=Nc2ncnn2C(c2ccccc2)/C1=N\O` (stereo not given), the Potency is inactive: > 76.9 µM.

For the compound `c1ccc2c(N3CCCC3)nc(-c3ccncc3)nc2c1`, the Potency was inactive: > 76.9 µM.

`COc1ccc(/C(O)=C2\C(=O)C(=O)N(c3cc(C)on3)C2c2ccc(OC)c(OC)c2)cc1OC` (stereo not given): the Potency was inactive: > 76.9 µM.

As to `O=C(Nc1nnc(C2CCCCC2)s1)c1ccc(Br)s1`, the Potency was inactive: > 76.9 µM.

Take `O=C(Cn1[nH]c(=O)c2ccccc2c1=O)OCC(=O)N1CCCc2ccccc21`: the Potency was inactive: > 76.9 µM.

As for `COc1ccc(-c2ccc(=O)n(CC(=O)Nc3cccc(O)c3)n2)cc1OC`, the Potency is inactive: > 76.9 µM.

As for `CN1C(=O)C(O)(C2COC(C)(C)CC2=O)c2cc(Br)ccc21` (stereo not given), the Potency is inactive: > 76.9 µM.

Turning to `Cc1ccc(C(=O)C2=C(O)C(=O)N(Cc3ccccc3)C2c2cccnc2)o1` (stereo not given), the Potency is inactive: > 76.9 µM.

`Cc1cc(C(=O)NCCCn2ccnc2)sc1-c1ccccc1`: the Potency was active: 10.6 µM.

Regarding `CC(C)(C)NC(=O)CSc1ncnc2c1nnn2Cc1ccccc1Cl`, the Potency was inactive: > 76.9 µM.

Take `O=C(CN1C(=O)C2C3C=CC(C3)C2C1=O)Nc1nc(SCc2ccc(Cl)cc2)n[nH]1` (stereo not given): the Potency is inactive: > 76.9 µM.

With `Cc1ccc(C(c2nnnn2Cc2cccs2)N2CCN(C(=O)c3ccco3)CC2)cc1` (stereo not given), the Potency is inactive: > 76.9 µM.

Regarding `CCCS(=O)(=O)NCCc1cc2c(OC)ccc(OC)c2[nH]c1=O`, the Potency was inactive: > 76.9 µM.

As for `Cc1ccc2nc(SCC(=O)NCc3ccco3)c(C#N)cc2c1`, the Potency is inactive: > 76.9 µM.

For the compound `CCn1c(SCC(=O)N2CCOCC2)nc2c(c1=O)SC(C)C2` (stereo not given), the Potency was inactive: > 76.9 µM.

As to `CCOc1ccc(S(=O)(=O)NCCC(=O)OC(C)C(=O)N2CCc3ccccc32)cc1` (stereo not given), the Potency was inactive: > 76.9 µM.

`CC(=O)c1c(C)[nH]c(C(=O)NCc2ccccc2Cl)c1C`: the Potency was inactive: > 76.9 µM.

Take `Cc1ccc(S(=O)(=O)N(CCO)c2cc3c(s2)CCCC3)cc1`: the Potency was inactive: > 76.9 µM.

Consider `c1cc2nncn2nc1N1CCCC1`, for which the Potency is inactive: > 76.9 µM.

Turning to `O=C(CC1(O)C(=O)N(Cc2ccc3c(c2)OCO3)c2ccccc21)c1ccccc1` (stereo not given), the Potency is inactive: > 76.9 µM.

Turning to `O=C(NC1CS(=O)(=O)CC1NCc1ccccc1)c1ccccc1` (stereo not given), the Potency is inactive: > 76.9 µM.

As to `CC(=O)/C(C[N+]1(C)CCCCC1)=N\O`, the Potency was inactive: > 76.9 µM.

With `COc1ccccc1NC(=O)C1CCCCN1S(=O)(=O)c1ccc(F)cc1` (stereo not given), the Potency was inactive: > 76.9 µM.

For the compound `Cn1c(=O)oc2cc(S(=O)(=O)NCCC(=O)N3CCc4ccccc4C3)ccc21`, the Potency was inactive: > 76.9 µM.

`CC(C)(C)n1nc2c(c1NC(=O)c1ccc(S(=O)(=O)N3CCCC3)cc1)CS(=O)C2` (stereo not given): the Potency is inactive: > 76.9 µM.

On to `Cc1nn(Cc2ccccc2)c(C)c1CCC(=O)O`, for which the Potency is inactive: > 76.9 µM.

For the compound `CCN(C(=O)CCc1nc(-c2ccc(OC)cc2)no1)c1cc(OC)ccc1OC`, the Potency was inactive: > 76.9 µM.

Consider `Cc1ccc(NS(=O)(=O)c2cc(C(=O)O)ccc2Cl)cc1`, for which the Potency is inactive: > 76.9 µM.

`O=C(Nc1ncc(C(F)(F)F)cc1Cl)C1COc2ccccc2O1` (stereo not given): the Potency was inactive: > 76.9 µM.

`CCCn1c(=O)c2ccccc2n2c(SCc3cc(=O)n4ccsc4n3)nnc12`: the Potency was inactive: > 76.9 µM.

As to `O=C(NCCCN1CCOCC1)c1ccccc1-c1ccccc1`, the Potency was inactive: > 76.9 µM.

On to `Clc1ccc2nc(CSc3nnc(-c4c[nH]c5ccccc45)o3)cn2c1`, for which the Potency was inactive: > 76.9 µM.

As for `CC1(C)C(=O)Nc2ccccc2N1C(=O)COc1ncnc2ccccc12`, the Potency is inactive: > 76.9 µM.
